The other results are listed elsewhere or left out. Values were computed here from the reads of four pooled replicates and scatter widely.

The record followed here is the BET-seq Pho4 binding data (Le et al. 2018).

For the assay, the target named is T1, Pho4 (S. cerevisiae) (UniProt P07270).
T1 sequence: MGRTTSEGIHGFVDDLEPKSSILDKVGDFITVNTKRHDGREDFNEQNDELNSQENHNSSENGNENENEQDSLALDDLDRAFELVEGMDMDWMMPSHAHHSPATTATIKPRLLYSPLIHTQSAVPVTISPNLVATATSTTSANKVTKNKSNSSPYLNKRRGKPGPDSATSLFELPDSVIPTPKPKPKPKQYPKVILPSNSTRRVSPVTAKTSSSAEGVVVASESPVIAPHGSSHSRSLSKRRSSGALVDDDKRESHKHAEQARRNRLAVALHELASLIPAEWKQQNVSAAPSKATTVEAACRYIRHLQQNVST
The assay can be described thus: relative binding free energy (BET-seq); higher = weaker binding. The following applies: reference: library average.
For the sequence AATGGCACGTGGAGTT, the “relative binding free energy” value was -0.16 kcal/mol.

With GGGCTCACGTGTGTAA, the “relative binding free energy” value is 0.21 kcal/mol.

Regarding TATCTCACGTGGTTAG, the “relative binding free energy” value was determined as 0.08 kcal/mol.

As to TTTCTCACGTGAATAG, the “relative binding free energy” value was found to be 0.34 kcal/mol.

Take ATGGACACGTGTTGCT: the “relative binding free energy” value worked out at 0.09 kcal/mol.

In the case of GTCAACACGTGTGAGG, the “relative binding free energy” value amounted to 0.19 kcal/mol.

On to AAAGACACGTGGGTTA, for which the “relative binding free energy” value was -0.04 kcal/mol.

With GGTGACACGTGTGTTC, the “relative binding free energy” value stood at 0 kcal/mol.

As to AGGGCCACGTGATTGA, the “relative binding free energy” value came out at 0.14 kcal/mol.

With GTATACACGTGAGGGG, the “relative binding free energy” value was found to be 0.32 kcal/mol.

On to GATTGCACGTGTGCAT, for which the “relative binding free energy” value amounted to 0.24 kcal/mol.

AGTTTCACGTGTGTCC: the “relative binding free energy” value is 0.44 kcal/mol.

As for TACGTCACGTGGGTGC, the “relative binding free energy” value was -0.08 kcal/mol.

As for GGGTCCACGTGTTGGC, the “relative binding free energy” value is 0.1 kcal/mol.

Regarding GGTAGCACGTGCAGGA, the “relative binding free energy” value is 0.11 kcal/mol.

Regarding GAGTGCACGTGGTATA, the “relative binding free energy” value was found to be 0.04 kcal/mol.

Turning to AGTGCCACGTGAGGCT, the “relative binding free energy” value came out at 0.15 kcal/mol.

Consider GGAATCACGTGTGCTG, for which the “relative binding free energy” value is 0.04 kcal/mol.

As for TAAGGCACGTGGCAGG, the “relative binding free energy” value was -0.07 kcal/mol.

For the sequence GTTATCACGTGCGTTT, the “relative binding free energy” value came to 0.15 kcal/mol.

In the case of AGGATCACGTGATTAT, the “relative binding free energy” value turned out to be 0.35 kcal/mol.

Turning to GTATCCACGTGGGATG, the “relative binding free energy” value came out at 0.07 kcal/mol.

Take TTTTGCACGTGGTGGA: the “relative binding free energy” value was found to be 0.09 kcal/mol.

For GGGAACACGTGGGATT, the “relative binding free energy” value amounted to 0.03 kcal/mol.

For the sequence TAGGGCACGTGGAAAG, the “relative binding free energy” value was 0.02 kcal/mol.

For GCAGCCACGTGGTGGG, the “relative binding free energy” value was -0.11 kcal/mol.

With TGAGTCACGTGGACGT, the “relative binding free energy” value came to 0.06 kcal/mol.

With AGTAACACGTGTAGTG, the “relative binding free energy” value is -0.12 kcal/mol.

Regarding GGTGTCACGTGCGAGA, the “relative binding free energy” value amounted to 0.17 kcal/mol.

For GGCTGCACGTGTTTAG, the “relative binding free energy” value turned out to be 0 kcal/mol.

Consider GCTGTCACGTGATAGA, for which the “relative binding free energy” value came out at 0.38 kcal/mol.

Consider TTGTGCACGTGCTTAG, for which the “relative binding free energy” value was 0.02 kcal/mol.

As for GTGGACACGTGCATGG, the “relative binding free energy” value was -0.06 kcal/mol.

For CTATACACGTGTATGT, the “relative binding free energy” value was -0.06 kcal/mol.

As for GGTAGCACGTGTTGGA, the “relative binding free energy” value is -0.17 kcal/mol.

With GCGACCACGTGGGGGT, the “relative binding free energy” value is -0.3 kcal/mol.

As for AGATGCACGTGAGTGT, the “relative binding free energy” value is 0.17 kcal/mol.

As for TTTTTCACGTGATTCT, the “relative binding free energy” value worked out at 0.29 kcal/mol.

For the sequence TCAGGCACGTGGGAGG, the “relative binding free energy” value is -0.16 kcal/mol.

TTGTTCACGTGAGGAC: the “relative binding free energy” value worked out at 0.37 kcal/mol.

For the sequence TAATGCACGTGTGTAA, the “relative binding free energy” value was found to be 0.05 kcal/mol.

As to GTTTGCACGTGGTACG, the “relative binding free energy” value was -0.08 kcal/mol.

Regarding GGTTGCACGTGCGGGA, the “relative binding free energy” value was -0.09 kcal/mol.

AATATCACGTGGGTCT: the “relative binding free energy” value was -0.09 kcal/mol.

As for GGTGGCACGTGTATCG, the “relative binding free energy” value worked out at 0.06 kcal/mol.

As to TGGGGCACGTGGATCG, the “relative binding free energy” value was -0.02 kcal/mol.

Take GGGGGCACGTGGTACA: the “relative binding free energy” value was -0.33 kcal/mol.

For GCTTGCACGTGTGATG, the “relative binding free energy” value came to 0.13 kcal/mol.

For TGGGGCACGTGTGATC, the “relative binding free energy” value is 0.06 kcal/mol.

With GATCGCACGTGGGGGG, the “relative binding free energy” value is -0.05 kcal/mol.

On to TGCGGCACGTGAGACG, for which the “relative binding free energy” value worked out at 0.14 kcal/mol.

With GAGAGCACGTGTTTGG, the “relative binding free energy” value was -0.09 kcal/mol.

GGGCTCACGTGGAGTG: the “relative binding free energy” value is 0.23 kcal/mol.

Consider CGTGTCACGTGCTTGT, for which the “relative binding free energy” value was determined as 0.03 kcal/mol.

Consider ACTGTCACGTGGTATA, for which the “relative binding free energy” value came to 0.05 kcal/mol.

Take ATCTTCACGTGGTTCT: the “relative binding free energy” value is 0.3 kcal/mol.

CGTGACACGTGGGTCG: the “relative binding free energy” value was -0.08 kcal/mol.

With GGTTGCACGTGTACGT, the “relative binding free energy” value was found to be 0.09 kcal/mol.

Regarding GTGAGCACGTGCGGTG, the “relative binding free energy” value is -0.08 kcal/mol.

Take AGACGCACGTGGTAAT: the “relative binding free energy” value worked out at 0.11 kcal/mol.

As to GGCGTCACGTGGTGTA, the “relative binding free energy” value was determined as 0.02 kcal/mol.

For the sequence TAAAGCACGTGGAGTG, the “relative binding free energy” value was -0.12 kcal/mol.

Consider CTCGGCACGTGAGGGT, for which the “relative binding free energy” value is 0.04 kcal/mol.

As for AAATGCACGTGCGTTG, the “relative binding free energy” value was -0.08 kcal/mol.

As for GGATGCACGTGTTAGA, the “relative binding free energy” value is -0.05 kcal/mol.

Consider AGGATCACGTGTCGGG, for which the “relative binding free energy” value was found to be 0.08 kcal/mol.

As to AGCGTCACGTGTGGAG, the “relative binding free energy” value was 0.15 kcal/mol.

Take ATCATCACGTGATGTG: the “relative binding free energy” value amounted to 0.26 kcal/mol.

Take GGGGTCACGTGTGTGA: the “relative binding free energy” value amounted to 0.14 kcal/mol.

On to ATGTGCACGTGCGAGA, for which the “relative binding free energy” value came out at 0.07 kcal/mol.

As for TAGGTCACGTGTAAGC, the “relative binding free energy” value came out at 0.24 kcal/mol.

Regarding AGGTGCACGTGGGTTT, the “relative binding free energy” value is -0.11 kcal/mol.

Take GAAAGCACGTGTTTTG: the “relative binding free energy” value was -0.05 kcal/mol.

On to GGCCACACGTGTTGGG, for which the “relative binding free energy” value was 0.15 kcal/mol.

For GTTCGCACGTGGAGTG, the “relative binding free energy” value was -0.05 kcal/mol.

As for GGTGTCACGTGCAGAG, the “relative binding free energy” value stood at 0.06 kcal/mol.

Take TTGCGCACGTGGCAGG: the “relative binding free energy” value is -0.23 kcal/mol.

TCGCTCACGTGGTAGG: the “relative binding free energy” value worked out at 0.12 kcal/mol.

Consider AGGGACACGTGAGGTC, for which the “relative binding free energy” value is 0.29 kcal/mol.

Consider TGGATCACGTGTAATC, for which the “relative binding free energy” value turned out to be 0.35 kcal/mol.

As to CAGGACACGTGGGGTA, the “relative binding free energy” value is -0.2 kcal/mol.

With AATGGCACGTGAGATG, the “relative binding free energy” value worked out at 0.23 kcal/mol.

As for TTGGTCACGTGTCTGA, the “relative binding free energy” value worked out at 0.04 kcal/mol.

As for TGCTGCACGTGTACTT, the “relative binding free energy” value turned out to be 0.07 kcal/mol.

On to CGGGGCACGTGGGGGC, for which the “relative binding free energy” value is -0.29 kcal/mol.

Consider ATGTACACGTGATTGC, for which the “relative binding free energy” value amounted to 0.17 kcal/mol.

In the case of TTACTCACGTGTGTGT, the “relative binding free energy” value was 0.21 kcal/mol.

As for TTAAGCACGTGGATAA, the “relative binding free energy” value was -0.11 kcal/mol.

For GATTTCACGTGATTGT, the “relative binding free energy” value came out at 0.33 kcal/mol.

Turning to TTTATCACGTGTTGAG, the “relative binding free energy” value was 0.24 kcal/mol.

Consider TTATTCACGTGTGTCG, for which the “relative binding free energy” value came to 0.31 kcal/mol.

Regarding ACAGGCACGTGAGTGT, the “relative binding free energy” value was found to be 0.05 kcal/mol.

For the sequence GGGTGCACGTGTTGCC, the “relative binding free energy” value was determined as 0.12 kcal/mol.

Turning to GAGAGCACGTGGGGCA, the “relative binding free energy” value is -0.19 kcal/mol.

Regarding TTCGCCACGTGTTGGT, the “relative binding free energy” value amounted to 0 kcal/mol.

As to ATGCGCACGTGGATGT, the “relative binding free energy” value is -0.14 kcal/mol.

TCATTCACGTGTGTGA: the “relative binding free energy” value stood at 0.14 kcal/mol.

Turning to GGTTACACGTGTAGTT, the “relative binding free energy” value was found to be 0.15 kcal/mol.

TAGGTCACGTGAATGT: the “relative binding free energy” value stood at 0.25 kcal/mol.

In the case of TGTCCCACGTGGTGGT, the “relative binding free energy” value was -0.38 kcal/mol.

Consider TAGCACACGTGTGAGG, for which the “relative binding free energy” value was 0.05 kcal/mol.

On to TGGGGCACGTGCTGCG, for which the “relative binding free energy” value was -0.2 kcal/mol.

As for GCGGGCACGTGTATAG, the “relative binding free energy” value is -0.06 kcal/mol.

In the case of TTGGTCACGTGGGTGC, the “relative binding free energy” value is -0.03 kcal/mol.

With TTGGTCACGTGGTATG, the “relative binding free energy” value came out at 0.09 kcal/mol.

In the case of AATGTCACGTGGTCAG, the “relative binding free energy” value was -0.03 kcal/mol.

For the sequence AGTTTCACGTGTGTGG, the “relative binding free energy” value stood at 0.15 kcal/mol.

In the case of TCTGTCACGTGGGGAT, the “relative binding free energy” value was -0.01 kcal/mol.

As for ATAGTCACGTGTTGAT, the “relative binding free energy” value was found to be 0.04 kcal/mol.

GTTGGCACGTGCGTCT: the “relative binding free energy” value was -0.06 kcal/mol.

As to GAGTGCACGTGGTGTC, the “relative binding free energy” value is -0.06 kcal/mol.

In the case of ATTTTCACGTGAGATA, the “relative binding free energy” value was found to be 0.43 kcal/mol.

Consider AGTCGCACGTGATGGG, for which the “relative binding free energy” value was -0.03 kcal/mol.

For the sequence TTGTGCACGTGCTAAT, the “relative binding free energy” value was -0.02 kcal/mol.

In the case of ATTCTCACGTGTGGTA, the “relative binding free energy” value stood at 0.22 kcal/mol.
